Consider 57 molecules from paper PMC4336329 (PLoS ONE, 2015).

Among all 310,000 compounds or so, about 2,200 (0.71%) showed an effect of 50% or more. The effect is printed as a negative number. Some of the results follow.

This experiment deals with human ether-à-go-go-related gene (hERG) potassium channel (human, UniProt Q12809). The experiment is described as follows: primary screen, population patch clamp on CHO cells stably expressing hERG.
Chain of human ether-à-go-go-related gene (hERG) potassium channel (Q12809 whole entry, looked up): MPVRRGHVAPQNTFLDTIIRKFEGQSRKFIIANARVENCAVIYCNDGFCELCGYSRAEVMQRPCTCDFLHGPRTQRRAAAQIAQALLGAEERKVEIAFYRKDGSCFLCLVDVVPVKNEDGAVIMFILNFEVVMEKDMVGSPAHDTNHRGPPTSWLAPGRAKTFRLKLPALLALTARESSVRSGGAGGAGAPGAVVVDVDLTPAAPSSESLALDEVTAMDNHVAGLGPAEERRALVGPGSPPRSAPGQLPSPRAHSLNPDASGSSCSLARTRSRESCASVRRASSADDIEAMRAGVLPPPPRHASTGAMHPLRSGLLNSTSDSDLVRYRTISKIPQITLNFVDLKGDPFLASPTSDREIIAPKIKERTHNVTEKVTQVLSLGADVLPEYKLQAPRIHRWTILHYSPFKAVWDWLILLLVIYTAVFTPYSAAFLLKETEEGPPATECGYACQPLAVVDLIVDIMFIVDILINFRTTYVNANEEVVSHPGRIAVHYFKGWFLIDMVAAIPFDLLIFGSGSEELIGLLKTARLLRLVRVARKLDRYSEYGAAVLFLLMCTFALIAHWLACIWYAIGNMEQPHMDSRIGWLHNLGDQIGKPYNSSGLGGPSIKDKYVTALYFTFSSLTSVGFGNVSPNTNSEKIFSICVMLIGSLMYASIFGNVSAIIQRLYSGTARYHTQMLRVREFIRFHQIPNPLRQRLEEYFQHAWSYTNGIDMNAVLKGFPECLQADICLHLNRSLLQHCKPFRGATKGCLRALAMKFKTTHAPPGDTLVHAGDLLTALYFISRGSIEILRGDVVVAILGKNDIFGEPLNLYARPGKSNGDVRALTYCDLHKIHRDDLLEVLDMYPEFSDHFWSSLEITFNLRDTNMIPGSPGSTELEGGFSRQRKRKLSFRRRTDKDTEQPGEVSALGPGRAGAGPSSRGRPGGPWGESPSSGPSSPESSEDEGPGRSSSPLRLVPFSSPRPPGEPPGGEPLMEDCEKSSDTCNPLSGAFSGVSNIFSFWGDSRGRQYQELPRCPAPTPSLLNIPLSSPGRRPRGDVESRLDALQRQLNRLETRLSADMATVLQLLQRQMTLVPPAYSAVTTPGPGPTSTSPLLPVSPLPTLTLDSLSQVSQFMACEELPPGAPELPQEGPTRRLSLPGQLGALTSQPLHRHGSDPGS
Turning to `COc1ccc(-c2nc(CS(=O)(=O)CC(=O)NCc3ccccc3OC)c(C)o2)cc1`, the “hERG current change (%, negative = inhibition) at 1uM” value is recorded as 5.65%. For `Nc1ccc(C(=O)N/N=C/c2cn(Cc3ccccc3)c3ccccc23)cc1` the value was 19.5%.

Regarding `O=C(Nc1cccc(NC(=O)c2nccc3ccccc23)c1)c1ccco1`, the “hERG current change (%, negative = inhibition) at 1uM” value worked out at 14.1%.

As to `CCOC(=O)C1CCCN(C(=O)c2ccc(CS(=O)(=O)Cc3ccccc3C)o2)C1` (stereo not drawn), the “hERG current change (%, negative = inhibition) at 1uM” value is reported as -3.4%.

As to `COc1ccccc1-c1nnc(Nc2nc3c(OC)cccc3s2)o1`, the “hERG current change (%, negative = inhibition) at 1uM” value was 12.3%. As for `COC(=O)c1cccc(N2C(=O)C3CC=CCC3C2=O)c1` (stereo not drawn), the “hERG current change (%, negative = inhibition) at 1uM” value was 9.51%.

Regarding `CCN(CC(=O)Nc1c(C(=O)OC)[nH]c2ccc(Cl)cc12)c1ccc2c(c1)OCO2`, the “hERG current change (%, negative = inhibition) at 1uM” value stood at 14.7%.

Take `Cc1ccc(NS(=O)(=O)c2cccc3nsnc23)cc1C`: the “hERG current change (%, negative = inhibition) at 1uM” value was -0.169%. For `CCN(CC)CC(=O)N1CCCC(C(=O)c2ccccc2OC)C1` (stereo not drawn) the value was 6.77%; for `O=C1CNC(=S)N1C(CO)c1ccccc1` (stereo not drawn), 17%.

`Cc1ccc(NC(=O)NCCCN2CCCC2=O)cc1Cl`: the “hERG current change (%, negative = inhibition) at 1uM” value came to 16.3%. The same measure for `C=CCNC(=O)CN1CCC(c2nc3cc(C)c(C)cc3[nH]2)CC1`: -4.9%; for `COc1ccc(N2CCN(Cc3nc4scc(-c5cccs5)c4c(=O)[nH]3)CC2)cc1`: -0.0962%.

As for `CCc1ccc(NC(=O)CCCNC(=O)Cn2cnc3sc(C)c(C)c3c2=O)cc1`, the “hERG current change (%, negative = inhibition) at 1uM” value was found to be 9.87%. As for `Cc1nccc(-c2ccc(-n3cnc4ccccc43)cc2)n1`, the “hERG current change (%, negative = inhibition) at 1uM” value worked out at 8.1%. The same measure for `CCCCCCNC(=O)Cc1nc2nc(C)cc(C)n2n1`: 10.4%.

Consider `CSc1ccccc1OCc1cc(C(=O)N(Cc2nccn2C)C(C)C)no1`, for which the “hERG current change (%, negative = inhibition) at 1uM” value came out at 2.51%. For `Cc1ccc(CNC(=O)C2CC(c3ccc([N+](=O)[O-])cc3)=NO2)cc1` (stereo not drawn) the value was -5.57%. For `COc1cc(S(=O)(=O)NCc2ccccc2)ccc1F` the value was 9.89%. The same measure for `COC(=O)CCCNS(=O)(=O)c1ccc2ccccc2c1`: 10.7%; for `CCOC(=O)N1CCN(C(=O)c2ccc(-n3c(=S)[nH]c4ccccc4c3=O)cc2)CC1`: 11.8%. Consider `COc1cc(/C=C2\C(=N)N3N=C(CC(=O)N4CCOCC4)SC3=NC2=O)cc(OC)c1OC`, for which the “hERG current change (%, negative = inhibition) at 1uM” value was determined as 18.9%. The same measure for `COc1ccc(S(=O)(=O)N2CCN(C(=O)c3cc4c(s3)CCCC4)CC2)cc1`: -3.32%.

As for `O=C(CN1CCN(C(c2ccccc2)c2ccccc2)CC1)NCc1ccccc1`, the “hERG current change (%, negative = inhibition) at 1uM” value stood at 11.5%. The same measure for `O=C(NCC1CCCO1)c1ccccc1OCc1ccc(F)cc1` (stereo not drawn): 0.646%. For `CC1CCCCN1C(=O)c1cnn2c(C(F)(F)F)cc(-c3ccco3)nc12` (stereo not drawn) the value was -4.66%; for `Cn1c(SCC(=O)N2CCOCC2)nnc1-c1ccc2ncccc2c1`, 14%. For `COc1ccc(N(CC(=O)Nc2cccc(C(C)=O)c2)S(C)(=O)=O)cc1OC` the value was 2.4%; for `Cc1ccc(NC(CC(=O)c2ccccc2)C(=O)O)cc1Cl` (stereo not drawn), 8.92%.

Regarding `COc1ccc(OC)c(CN2CCSCC2)c1`, the “hERG current change (%, negative = inhibition) at 1uM” value came out at 11.3%. For `COc1ccc(CCN2C(=O)C(O)=C(C(C)=O)C2c2ccccc2OC)cc1OC` (stereo not drawn), the “hERG current change (%, negative = inhibition) at 1uM” value is recorded as 19.2%.

On to `Cc1ccc(S(=O)(=O)N2CCN(C(=O)COC(=O)c3ccccn3)CC2)c(C)c1`, for which the “hERG current change (%, negative = inhibition) at 1uM” value is 13.5%.

As to `COc1cc2c(cc1OC)C(C)N(CCN1C(=O)c3ccccc3C1=O)CC2` (stereo not drawn), the “hERG current change (%, negative = inhibition) at 1uM” value was 16.1%.

Consider `O=[N+]([O-])c1ccccc1/C=N\N1CCN(c2ccccc2)CC1`, for which the “hERG current change (%, negative = inhibition) at 1uM” value is reported as 14.2%. In the case of `COCCNC(=O)C(=O)c1c(-c2ccccc2)[nH]c2ccccc12`, the “hERG current change (%, negative = inhibition) at 1uM” value worked out at 4.01%.

`CCOC(=O)N1CCN(C(=O)c2cn(C)c3ccc(S(=O)(=O)N(C)C4CCCCC4)cc3c2=O)CC1`: the “hERG current change (%, negative = inhibition) at 1uM” value was -16.7%. For `CC1(C)CCC(C)(C)NC(=S)N1` the value was 17.8%; for `COC(=O)c1cccc(NS(=O)(=O)c2ccc(OC)c(OC)c2)c1C`, -1.89%.

Regarding `CCc1ccccc1NC(=O)CNC(=O)c1n[nH]c(=O)c2ccccc12`, the “hERG current change (%, negative = inhibition) at 1uM” value is listed as 12.4%. The same measure for `C/C(=N\N=C1\NC(=O)CS1)c1cccs1`: 13.4%; for `O=C(Nc1ccc2c(c1)OCO2)c1c(Cl)nc2sccn12`: 6.3%; for `O=C(CSc1nc(C2CC2)nc2sc3c(c12)CCCC3)NCc1ccco1`: 4.94%.

With `Cn1c(O)c(N=NC(=O)C2COc3ccccc3O2)c2ccccc21` (stereo not drawn), the “hERG current change (%, negative = inhibition) at 1uM” value was found to be 10.7%. Regarding `Cc1ccc(S(=O)(=O)NCC(=O)NCc2ccncc2)cc1`, the “hERG current change (%, negative = inhibition) at 1uM” value worked out at 5.96%. Regarding `CCN1CC=C(c2c[nH]c3ccccc23)CC1`, the “hERG current change (%, negative = inhibition) at 1uM” value was found to be 3.56%. For `CCOC(=O)c1ccccc1NC(=O)COC(=O)CSc1ccccc1` the value was -2.31%; for `CC(C)Cn1cc(C(=O)NCCCN2CCCC2=O)c2c3ccccc3n(C)c2c1=O`, 1.48%; for `COc1ccc2c(c1)C(=C(C#N)C#N)C(=O)N2CCc1ccccc1`, 9.16%.

As for `Cc1cccc(OCC(O)Cn2c(=N)n(CCN3CCCCC3)c3ccccc32)c1.Cl` (stereo not drawn), the “hERG current change (%, negative = inhibition) at 1uM” value was -59.8%. The same measure for `COc1ccc(-n2c(=S)[nH]c(=O)c3cccnc32)cc1`: 10.2%; for `COc1cccc(-c2nc3ccc(C(=O)N4CCCC(O)C4)cc3o2)c1` (stereo not drawn): 19.3%.

With `COC(=O)c1[nH]c2ccc(C)cc2c1NC(=O)CN1CCCC(C)(C)C1`, the “hERG current change (%, negative = inhibition) at 1uM” value came to 10.9%.

Consider `CCC(C)(C)NC(=O)/C=C/c1ccc(OC)c(S(=O)(=O)N2CCOCC2)c1`, for which the “hERG current change (%, negative = inhibition) at 1uM” value stood at 8.63%. For `O=C(NCCCNc1ccnc2cc(Cl)ccc12)c1ccccc1F` the value was -38.9%; for `CC(C)(C)c1cc(NCc2ccccn2)n2ncc(-c3ccccc3)c2n1`, 13.4%; for `O=C1C=C(Nc2ccccc2)C(=O)c2ccccc21`, 13.6%.

Regarding `CC(COc1ccccc1Cc1ccccc1)N1CCCCC1.O=P(O)(O)O` (stereo not drawn), the “hERG current change (%, negative = inhibition) at 1uM” value is -48.2%.
